The source of these data is PMC4336329 (PLoS ONE, 2015).

Screen size: about 310,000 compounds; about 2,200 (0.71%) showed an effect of 50% or more. The effect is printed as a negative number. Some of the results follow.

The target in the experiment is human ether-à-go-go-related gene (hERG) potassium channel (human, UniProt Q12809). Briefly: primary screen, population patch clamp on CHO cells stably expressing hERG.
Sequence of human ether-à-go-go-related gene (hERG) potassium channel (Q12809 whole entry, looked up): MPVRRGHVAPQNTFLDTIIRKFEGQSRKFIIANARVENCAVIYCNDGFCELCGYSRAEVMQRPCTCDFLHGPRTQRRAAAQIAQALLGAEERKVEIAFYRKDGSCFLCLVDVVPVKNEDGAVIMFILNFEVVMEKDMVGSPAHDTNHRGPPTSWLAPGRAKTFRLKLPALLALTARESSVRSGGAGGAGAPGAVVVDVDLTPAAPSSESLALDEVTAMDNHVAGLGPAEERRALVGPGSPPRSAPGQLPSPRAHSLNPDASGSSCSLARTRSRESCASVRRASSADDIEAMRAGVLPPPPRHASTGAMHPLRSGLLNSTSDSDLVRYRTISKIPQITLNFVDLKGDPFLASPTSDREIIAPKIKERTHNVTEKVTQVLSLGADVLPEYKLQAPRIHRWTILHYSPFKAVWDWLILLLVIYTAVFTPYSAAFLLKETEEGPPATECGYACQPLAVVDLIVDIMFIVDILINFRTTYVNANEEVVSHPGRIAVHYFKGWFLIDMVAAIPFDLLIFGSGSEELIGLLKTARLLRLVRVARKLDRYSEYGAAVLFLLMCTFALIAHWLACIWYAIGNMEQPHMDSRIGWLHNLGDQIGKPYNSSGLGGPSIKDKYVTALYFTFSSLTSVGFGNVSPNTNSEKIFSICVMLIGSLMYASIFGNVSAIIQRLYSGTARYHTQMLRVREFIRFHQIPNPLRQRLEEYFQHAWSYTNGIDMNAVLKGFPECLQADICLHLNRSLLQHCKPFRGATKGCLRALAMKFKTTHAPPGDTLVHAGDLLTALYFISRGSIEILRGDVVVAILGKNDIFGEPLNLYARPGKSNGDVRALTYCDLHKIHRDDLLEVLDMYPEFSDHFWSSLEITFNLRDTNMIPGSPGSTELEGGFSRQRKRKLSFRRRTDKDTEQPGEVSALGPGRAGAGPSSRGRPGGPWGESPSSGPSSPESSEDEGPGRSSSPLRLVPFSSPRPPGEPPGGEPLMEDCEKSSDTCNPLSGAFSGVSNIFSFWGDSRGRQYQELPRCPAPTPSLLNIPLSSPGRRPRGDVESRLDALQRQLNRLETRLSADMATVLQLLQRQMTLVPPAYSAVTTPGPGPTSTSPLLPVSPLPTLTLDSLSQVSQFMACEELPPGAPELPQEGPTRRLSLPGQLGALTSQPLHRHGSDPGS
For the compound `COc1cc(O)c(C(CC(=O)N2CCCCC2)c2ccc3c(c2)OCO3)c(OC)c1` (centres unmarked), the “hERG current change (%, negative = inhibition) at 1uM” value worked out at 15.2%.
For the compound `Cc1cccc(-c2noc(-c3c(C)noc3C)n2)c1`, the “hERG current change (%, negative = inhibition) at 1uM” value amounted to 6.8%.
To `COc1ccc(C2CC(=O)c3cnc(NC(=O)c4ccccc4)nc3C2)cc1OC` (centres unmarked) belongs 0.969%; to `CC1(C)Cc2c(sc3ncnc(NNC(=S)NCc4ccccc4)c23)CO1`, 11.3%.
Turning to `Cc1ccc(S(=O)(=O)NCCN2CCOCC2)c(C)c1.Cl`, the “hERG current change (%, negative = inhibition) at 1uM” value turned out to be 10.8%.
To `O=C(Nc1ccc2nc(N3CCOCC3)sc2c1)c1ccc(F)cc1` belongs 4.59%; to `CCOC(=O)CCNC(=O)CNC(=O)OCc1ccccc1`, 10.9%; to `CC(=O)n1cc([C@H]2C=C(C(=O)N3CCN(Cc4ccc5c(c4)OCO5)CC3)O[C@@H](OCc3ccc(CO)cc3)C2)c2ccccc21`, 9.34%.
For `N/C(=N\[N+](=O)[O-])N/N=C/c1ccc(O)cc1` the value was 4.26%; for `Cc1nnc2ccc(-c3cccc(NS(C)(=O)=O)c3)nn12`, 2.86%.
Consider `C=C(C)Cn1c(=O)c2c(nc3n2CC(C)CN3Cc2ccccc2)n(C)c1=O` (centres unmarked), for which the “hERG current change (%, negative = inhibition) at 1uM” value is -5.92%.
For `O=C1/C(=C/c2cccc([N+](=O)[O-])c2)CCc2ccccc21` the value was -1.76%; for `COc1cccc(CNC(=O)CCS(=O)(=O)c2ccc3c(c2)NC(=O)CS3)c1`, 12.2%; for `O=C(O)C(=O)O.O=C(c1cccc2ccccc12)N1CCN(Cc2ccccc2F)CC1`, 8.72%.
To `CC(=O)N1CCN(c2ccccc2NC(=O)c2cc(Br)ccc2Cl)CC1` belongs -27%; to `COc1ccc(OCC(=O)NNC(=O)C2CCCO2)cc1` (centres unmarked), 12.4%.
To `O=C(Nc1ccccc1)c1cc(-n2cnnc2)ccc1Cl` belongs 8.64%.
With `COc1cccc(NC(=O)CN(c2cccc(C(F)(F)F)c2)S(C)(=O)=O)c1`, the “hERG current change (%, negative = inhibition) at 1uM” value is listed as 6.28%.
As for `O=C(O)C1CCCCC1C(=O)Nc1ccc2c(c1)CCC2` (centres unmarked), the “hERG current change (%, negative = inhibition) at 1uM” value was -3.73%.
For `O=C(CS(=O)(=O)c1c[nH]c2ccccc12)N1CCCCC1` the value was 17%; for `O=C(NC(C(=O)N1CCCC1C(=O)O)=C1CCCCC1)c1ccccc1` (centres unmarked), -0.878%.
For `COc1ccc(CC(=O)NCC(=O)N/N=C/c2sccc2C)cc1`, the “hERG current change (%, negative = inhibition) at 1uM” value stood at 5.04%.
For `CCC1C(=O)N=C(SCC(=O)Nc2ccc(C(=O)OC)cc2)NC1=O` (centres unmarked) the value was 11.5%; for `CC(=O)N1c2ccc(S(=O)(=O)N3CCC(C(=O)N4CCCC(C)C4)CC3)cc2CC1C` (centres unmarked), 3.98%.
Regarding `COc1ccc(CCCC(=O)N/N=C\c2cccs2)cc1`, the “hERG current change (%, negative = inhibition) at 1uM” value is 25.1%.
To `COc1ccc(-c2cc(C(=O)O)sc2C)cc1` belongs 3.33%; to `COc1ccc(CCNC(=O)C2CC(=O)N(c3ccc(C(C)(C)C)cc3)C2)cc1OC` (centres unmarked), 7.77%.
To `Cc1ccc(S(=O)(=O)NC(=O)Nn2c(C)nnc2C)cc1` belongs 24.2%; to `C=CCn1cnc2c(nnn2Cc2ccc(F)cc2)c1=O`, 11.5%; to `COCCNC(=O)C(c1ccc(O)cc1)N(C(=O)CCC(=O)Nc1nccs1)c1cccc(C)c1` (centres unmarked), 19.8%.
To `FC(F)(F)c1cc(CCN2C(=S)NC[C@@H]2c2ccccc2)cc(C(F)(F)F)c1` belongs 12.6%.
Take `Cc1c(Cl)c([N+](=O)[O-])nn1CC(=O)NCc1cccnc1`: the “hERG current change (%, negative = inhibition) at 1uM” value is recorded as 14.7%.
As to `O=C(N/N=C/c1cccc2ccccc12)c1ccc(CN2CCOCC2)cc1`, the “hERG current change (%, negative = inhibition) at 1uM” value turned out to be 9.04%.
Regarding `Cc1ccc(C(=O)N[C@@H](C)CN2C3=NC[C@H](C(C)C)N3C[C@H]2Cc2ccc(O)cc2)cc1Br`, the “hERG current change (%, negative = inhibition) at 1uM” value is recorded as -34.3%.
Take `O=C1CSC(c2ccccc2)N1c1ccc(F)cc1F` (centres unmarked): the “hERG current change (%, negative = inhibition) at 1uM” value came to 9.55%.
For the compound `Cc1c(NC(=O)C(c2ccccc2)c2ccccc2)cccc1C(=O)O`, the “hERG current change (%, negative = inhibition) at 1uM” value is given as 16.2%.
For `O=C(NCCc1ccco1)C(=O)NCCC1CCCCN1S(=O)(=O)c1ccccc1` (centres unmarked) the value was 3.49%; for `Cc1ccc(NC2=Nc3ccccc3CC2)cc1`, 8.06%.
To `CC1(C)CC(=O)C=C(Nc2ccc(S(N)(=O)=O)cc2)C1` belongs 11.4%.
To `Cc1[nH]n(-c2ccc(Cl)cc2)c(=O)c1/C=N/c1nnc(-c2ccccc2)s1` belongs 21.6%.
Take `CC(=O)c1c(N2CCN(C)CC2)[nH]c(-c2ccccc2)nc1=S`: the “hERG current change (%, negative = inhibition) at 1uM” value was 6.6%.
To `Cc1cccc(C)c1OCC(=O)Nc1cccc(NC(=O)c2ccco2)c1` belongs 9.09%; to `COc1ccc(NC(=O)C2CCCN2C(=O)NCc2ccccc2)cc1` (centres unmarked), 10.8%; to `CN(C)c1ccc(C=Nc2ccccc2C(N)=O)cc1`, 5.28%.
Consider `O=C(N=C1SC2CS(=O)(=O)CC2N1c1ccccc1)C1CCCCC1` (centres unmarked), for which the “hERG current change (%, negative = inhibition) at 1uM” value was determined as 16%.
To `Cc1ccc(NS(=O)(=O)c2ccc(C(=O)N3CCN(c4ccccn4)CC3)cc2)cc1` belongs 19.6%; to `CCCn1nnnc1NCc1ccc(SC)cc1`, 10.6%.
As to `Cc1cccc(CSc2nn3c(=O)c(C)nnc3s2)c1`, the “hERG current change (%, negative = inhibition) at 1uM” value worked out at 7.26%.
For `O=C(C1=C(O)C(=O)N(c2ccccc2)C1c1ccc([N+](=O)[O-])cc1)c1cccs1` (centres unmarked), the “hERG current change (%, negative = inhibition) at 1uM” value worked out at 12.8%.
For the compound `Cc1ccc(C(=O)COC(=O)C(C)N2C(=O)C3C4C=CC(C4)C3C2=O)cc1C` (centres unmarked), the “hERG current change (%, negative = inhibition) at 1uM” value turned out to be 15.5%.
To `c1ccc(CNCCN2CCNCC2)nc1` belongs 8.67%; to `COc1cccc(C2Nc3ccccc3C(=O)N2c2ccc(F)cc2)c1O` (centres unmarked), 9.45%; to `COc1ccc(C(=O)N/N=C(\C)CC(=O)NC2CCCCC2)c(OC)c1`, 4.88%.
Regarding `COc1ccc(C2/C=C\CN(S(=O)(=O)c3cccc4cccnc34)CC(=O)N2Cc2ccc(F)cc2)cc1` (centres unmarked), the “hERG current change (%, negative = inhibition) at 1uM” value is given as 11.4%.
To `COc1ccc(/C=C/C(=O)NCCCNC(=O)/C=C/c2ccc(OC)c(OC)c2)cc1OC` belongs -1.09%; to `O=C(COc1coc(CN2CCc3ccccc3C2)cc1=O)Nc1cccc(Cl)c1`, 10.6%; to `CC1CCN(C(=O)C2CCN(S(=O)(=O)c3cccc4nonc34)CC2)CC1`, -6.88%.
For `CCOc1ccc2[nH]c(C(=O)N/N=C/c3cccc(OC)c3OC)cc2c1` the value was 7.16%; for `O=C(c1cccs1)c1cn(CC(=O)N2CCc3ccccc3C2)c2ccccc12`, 8.36%.
As for `O=C(Oc1ccc(Cl)cc1)N1CCCCC1`, the “hERG current change (%, negative = inhibition) at 1uM” value worked out at 3.2%.
In the case of `O=C(Nc1ccc(Br)cc1)c1ccc(CSC2=NCCS2)cc1`, the “hERG current change (%, negative = inhibition) at 1uM” value came to 7.38%.
Take `CN(Cc1ccccc1)c1ccc(C(CC(N)=O)NC(=O)Cc2cccc3ccccc23)cc1[N+](=O)[O-]` (centres unmarked): the “hERG current change (%, negative = inhibition) at 1uM” value is reported as -5.26%.
To `Cc1sc(NC(=O)c2ccco2)c(C(c2cccnc2)N2CCC(C)CC2)c1C` (centres unmarked) belongs 11.6%.
Take `O=C(O)c1cc(-c2cc(C(=O)O)c3ccccc3n2)nc2ccccc12`: the “hERG current change (%, negative = inhibition) at 1uM” value amounted to 12.2%.
Consider `COc1ccc(CCNC(=O)CCN2C(=O)C(C)Oc3ccc(C)cc32)cc1OC` (centres unmarked), for which the “hERG current change (%, negative = inhibition) at 1uM” value is 5.74%.
For `COc1cccc(NC(=S)N(CCN(C)C)C(C)c2ccncc2)c1` (centres unmarked) the value was -9.71%; for `CC(C)OC(=O)CCNc1n[nH]c(=O)[nH]c1=O`, 4.38%.
For the compound `O=C(Sc1nnnn1C1CCCCC1)c1cccs1`, the “hERG current change (%, negative = inhibition) at 1uM” value came out at 2.01%.
To `Cc1ccc(NC(=S)NCCN(C2CCCCC2)C2CCCC2)cc1C` belongs -2.62%; to `O=C(COC(=O)c1ccc(S(=O)(=O)Nc2ccccc2)cc1)NCCC1=CCCCC1`, 13%.
To `Cc1ccc(SCc2cc(=O)[nH]c(/N=C(\N)Nc3cccc4ccccc34)n2)cc1` belongs 11.4%; to `Cc1ccc2c(c1)C(c1ccccc1)N(C(=O)c1ccc3c(c1)OCO3)CC(=O)N2` (centres unmarked), -8.28%; to `COc1ccc(OC)c(N2C(N)=NC(N)=NC23CCCC3)c1.Cl`, 21.9%.
For `Cn1nnnc1SCCNC(=O)C1CCC(=O)N(CCc2cccc(F)c2)C1` (centres unmarked) the value was 13%; for `Cn1ccc(C(=O)OCC(=O)Nc2cccc(Cl)c2)n1`, 5.92%.
Regarding `Cc1nc2ncnn2c(C)c1CCC(=O)N1CCOCC1`, the “hERG current change (%, negative = inhibition) at 1uM” value was 0.233%.
To `CCOc1ccccc1C(=O)Nc1cccc(-c2ccc3nncn3n2)c1` belongs -2.73%; to `Cc1nn(-c2ccccc2)c2[nH]c(=O)c(CNCc3ccc4c(c3)OCO4)cc12`, -7.2%.
Take `O=C(Cc1ccc([N+](=O)[O-])cc1)NCc1ccccc1Cl`: the “hERG current change (%, negative = inhibition) at 1uM” value is recorded as 7.97%.
Take `Cc1ccc(NC(=O)CSc2nnc3ccc(-c4cccnc4)nn23)cc1`: the “hERG current change (%, negative = inhibition) at 1uM” value is listed as -6.78%.
For the compound `CC(C)(C)OC(=O)NCCCC[C@H](NC(=O)c1nc[nH]c1C(=O)N1CCN(C(=O)OC(C)(C)C)CC1)C(=O)OC(C)(C)C`, the “hERG current change (%, negative = inhibition) at 1uM” value was determined as 12.1%.
As for `COc1ccc(S(=O)(=O)N(CC(=O)NCC2CCCO2)Cc2ccccc2)cc1C` (centres unmarked), the “hERG current change (%, negative = inhibition) at 1uM” value was -3.83%.
With `CC(C)(C)c1ccc(OCCNC(=S)NC(=O)c2cccnc2)cc1`, the “hERG current change (%, negative = inhibition) at 1uM” value stood at 1.55%.
On to `CCCN1CCN(c2ncnc3scc(C4COc5ccccc5O4)c23)CC1` (centres unmarked), for which the “hERG current change (%, negative = inhibition) at 1uM” value is -3.01%.
As for `Oc1oc(-c2ccccc2)nc1C=Nc1ccccc1`, the “hERG current change (%, negative = inhibition) at 1uM” value is given as 4.36%.
In the case of `O=C(Nc1ccc(F)cc1)c1cccc(NC(=O)C2C3CC4OC(=O)C2C4C3)c1` (centres unmarked), the “hERG current change (%, negative = inhibition) at 1uM” value amounted to 16.4%.
